This is one part of the list.

57 sequences from the supplement of paper PMC11417369 can be followed below.

In this experiment the test system is PfAP2-HC AP2 domain (GST-tagged). The experiment can be described thus: gcPBM binding intensity (ln(normalized median fluorescence intensity)); higher = stronger DNA binding. The essentials: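 Binding of GST-tagged P. falciparum DNA-binding domains, expressed in E. coli and used at about 25 μg on average, was carried out for 1 h in 1× PBS containing 1% milk, 0.2 mg/ml BSA, 0.5% salmon testes DNA and 0.03% Triton X-100. The target was an Agilent 4 × 180k array of primer-extended double-stranded 36-bp intergenic genomic probes plus negative controls, read with Alexa488 anti-GST antibody at 488 nm. Binding intensity is the highest Masliner-normalised natural-log median intensity across replicate spots of either probe orientation.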
TTTTTAACGTATAAGGTGCACTGTATATGGTACTCA: the “gcPBM binding intensity (ln)” value stood at 9.54.

“TCTTCTTTAAAAGAGGTGCACTATATAATGTGATTA [GTGCAC_site9431]”: the “gcPBM binding intensity (ln)” value turned out to be 9.45.

Regarding “TAATTATACTTATTTTGTACGCAATATTTAAAATAA [XGTACX_site8516]”, the “gcPBM binding intensity (ln)” value worked out at 9.48.

For the sequence “TATATATATATATATTGTACACATACATGTAGTTTT [XGTACX_site4848]”, the “gcPBM binding intensity (ln)” value worked out at 10.3.

Regarding “TATATATATATATAGGTGCAATATTGAAAAAATATC [GTGCAC_site9535]”, the “gcPBM binding intensity (ln)” value worked out at 10.1.

As to “AAAGTAATATATAATACATGCGTAAATATTTATGTA [TGCATGCA_site254]”, the “gcPBM binding intensity (ln)” value was 9.84.

For “GACAAATGAAAAGATTGTACATGTATTTGAAGATTA [XGTACX_site6775]”, the “gcPBM binding intensity (ln)” value came to 9.69.

“TGATTATATATAAATGTATGCATGTCTATTATGCTA [TGCATGCA_site543]”: the “gcPBM binding intensity (ln)” value amounted to 9.56.

“TACACAAAAATTTATACACACACATATATAATATAT [CACACA_site7931]”: the “gcPBM binding intensity (ln)” value is 10.1.

For “TCTTTTATATTTTTTTGTACACAAGAATAAAGAAAA [XGTACX_site3394]”, the “gcPBM binding intensity (ln)” value was 9.31.

Regarding “ATCTTTTATATATTCACACATAAAATTATACAGATA [CACACA_site5277]”, the “gcPBM binding intensity (ln)” value stood at 9.46.

For “GAGTTTTAATGTAATAGTACTTTAATTATTATATAT [XGTACX_site4527]”, the “gcPBM binding intensity (ln)” value is 9.7.

As for “TTTTTTTTTTATTCATGTACGTATTTAAATAATTCT [XGTACX_site2651]”, the “gcPBM binding intensity (ln)” value stood at 9.64.

As for “AAAAAAAAAAAAAACACACAAACAAATGAATAAATA [CACACA_site3300]”, the “gcPBM binding intensity (ln)” value came out at 9.84.

As for “ATATATATATATAATGCACACATTATAAATTATGTA [CACACA_site5802]”, the “gcPBM binding intensity (ln)” value is 9.72.

“AATAAATAAATAAATATATATATATATATATATATA [CACACA_negctrl_site708]”: the “gcPBM binding intensity (ln)” value was 9.54.

With “TATTTTTATTTTACATTATTTGTTTATAATTCTTAA [CACACA_negctrl_site1358]”, the “gcPBM binding intensity (ln)” value is 9.59.

For “TGTATATACATAAAGTGTACGTATATTTATATATAT [XGTACX_site4320]”, the “gcPBM binding intensity (ln)” value worked out at 9.62.

As to “TATATATATAAGGATAGTACATATATTTATATGATT [XGTACX_site4954]”, the “gcPBM binding intensity (ln)” value came to 9.61.

As to “AAAATTATAAAATGGGCACACATGAATATTGTAGTA [CACACA_site5261]”, the “gcPBM binding intensity (ln)” value worked out at 10.1.

Take “ATGAAATTTATATCATGTACATACAAGAGAAAAAAA [XGTACX_site3326]”: the “gcPBM binding intensity (ln)” value stood at 9.75.

In the case of “GTATAATAAATGATAGCACACATATGTACTTATATA [CACACA_site8188]”, the “gcPBM binding intensity (ln)” value is 9.77.

As for “TTATATATTTCTATTGCACACTATATTTTATGAAGA [CACACA_site2910]”, the “gcPBM binding intensity (ln)” value stood at 9.68.

With “GACTACACACAAGGGTGTACATATATATTATATATA [XGTACX_site2247]”, the “gcPBM binding intensity (ln)” value worked out at 9.75.

With “TTAACTTATTTGTAAAGTACATTAATAAAAAGAAAA [XGTACX_site1588]”, the “gcPBM binding intensity (ln)” value was determined as 9.32.

Turning to “AGGTTATAATTGTTTTCACACATTTAAAAATGTTAT [CACACA_site5097]”, the “gcPBM binding intensity (ln)” value amounted to 9.7.

Consider “TTTATTTTAAATTTACGTACATAATTAATCATATTT [XGTACX_site7529]”, for which the “gcPBM binding intensity (ln)” value was found to be 9.76.

As to “ATAAAAAATTAGGACTGTACATAATTTTTGTGATTT [XGTACX_site2857]”, the “gcPBM binding intensity (ln)” value was found to be 9.66.

Regarding TAATGCAACATTTATGTGCACATAAATATTTTTTAA, the “gcPBM binding intensity (ln)” value was 9.52.

For the sequence “AAAACACAATTTATTACACACATATATTATAGATTA [CACACA_site6780]”, the “gcPBM binding intensity (ln)” value amounted to 10.1.

Consider “TTATAAAAATACAGTTAACACACATGTGTATATATA [CACACA_site9257]”, for which the “gcPBM binding intensity (ln)” value is 9.82.

As to “AAAAAAAAAATATACACACACACATACCCATAAATA [CACACA_site5981]”, the “gcPBM binding intensity (ln)” value turned out to be 10.7.

Turning to “GATCGCATGAAATGAACACACATAAAAAAAATATAC [CACACA_site4087]”, the “gcPBM binding intensity (ln)” value worked out at 9.9.

Regarding “AAAATAATCTTATGCACACCAAAAATTTATATAATC [CACACA_site1235]”, the “gcPBM binding intensity (ln)” value came out at 9.76.

Regarding “ATAACAAAATAAAACACACACACAAATGTACAGATA [CACACA_site5358]”, the “gcPBM binding intensity (ln)” value amounted to 10.5.

For “ATTTTTGTGTTTACACGTACGTGTAAATTATTTTTC [XGTACX_site1869]”, the “gcPBM binding intensity (ln)” value amounted to 9.95.

On to “TATTCATGTTTAAAAAGTACATATTATGGTAACATT [XGTACX_site4533]”, for which the “gcPBM binding intensity (ln)” value amounted to 9.58.

Take “AGAAGCATACATCAAGCACACACACCCACACCCACA [CACACA_site8014]”: the “gcPBM binding intensity (ln)” value is 11.4.

In the case of “TCCTTTTCTTAATTTAAAAAATATAAAAAAAACGAA [CACACA_negctrl_site1821]”, the “gcPBM binding intensity (ln)” value amounted to 9.24.

On to “ACACGTTTATATAAAAAATTAAAATTTTTCTTATTT [CACACA_negctrl_site1523]”, for which the “gcPBM binding intensity (ln)” value was found to be 9.59.

As to “AATACATACAGACACACACACACATATAAATAAATA [CACACA_site7642]”, the “gcPBM binding intensity (ln)” value is 11.6.

Consider “GCTCATTGAAGTTATACACACCAAATATGTAAATAT [CACACA_site7217]”, for which the “gcPBM binding intensity (ln)” value is 9.65.

As to “AAAAGGGATAAATGTGCGCACATGTTATATATATAT [GTGCAC_site9534]”, the “gcPBM binding intensity (ln)” value was 9.98.

For “ACATATCTACACAGTGGTACTTCCATTAATATATAC [XGTACX_site3827]”, the “gcPBM binding intensity (ln)” value turned out to be 9.78.

Take “TCATAAATTAAACAAACACACACGTTCTTTTATTTA [CACACA_site713]”: the “gcPBM binding intensity (ln)” value was found to be 9.86.

Consider “ATTTATTCAAATGGTTGTACTACAAATAAACATTAT [XGTACX_site3378]”, for which the “gcPBM binding intensity (ln)” value is 9.63.

Consider “AACAATGTTGTACATACACACACACTAATAAAAAAT [CACACA_site8758]”, for which the “gcPBM binding intensity (ln)” value was found to be 10.3.

As for “CATAAATACACTGTAGCGCACACGGCCAAAAAAAAA [CACACA_site8537]”, the “gcPBM binding intensity (ln)” value was 9.95.

In the case of “ATATAATATGGTATTACACACTGTTATAAGTATGGC [CACACA_site2094]”, the “gcPBM binding intensity (ln)” value was 9.79.

As to “GTAAAAAAAGAGCACACACACAAAAACACCCACAAA [CACACA_site1292]”, the “gcPBM binding intensity (ln)” value stood at 10.9.

For “TTTATTCCCGCATATAGTACATATACCATTTAATGT [XGTACX_site7011]”, the “gcPBM binding intensity (ln)” value was 9.73.

In the case of “AATATTTAAGTACTGGTGCGTGTATATAATGATTAA [GTGCAC_site9633]”, the “gcPBM binding intensity (ln)” value stood at 9.68.

On to “AAACTTGTAAGAAACACACACACACGCATATAAATA [CACACA_site6518]”, for which the “gcPBM binding intensity (ln)” value is 10.7.

Turning to “ATAAATAAAATATGCACACAAATATAGGAAACAACA [CACACA_site2561]”, the “gcPBM binding intensity (ln)” value came to 10.1.

Turning to “TTAAATAAAATTTATTGTACATAAAATTAAATATAG [XGTACX_site3039]”, the “gcPBM binding intensity (ln)” value was determined as 9.47.

For the sequence “CATAATTTACATAAAAGTACATATATATTAATGACG [XGTACX_site6247]”, the “gcPBM binding intensity (ln)” value was 9.64.

“GTGTATCAATATGTAGGTACGTAAATATAGATAATA [XGTACX_site5526]”: the “gcPBM binding intensity (ln)” value was determined as 9.81.
